The record followed here is paper PMC12820563.

This is one part of the list. The list includes weakly bound sequences.

The target in this experiment is T1, MBP-FoxP3dN (UniProt Q99JB6).
T1 sequence: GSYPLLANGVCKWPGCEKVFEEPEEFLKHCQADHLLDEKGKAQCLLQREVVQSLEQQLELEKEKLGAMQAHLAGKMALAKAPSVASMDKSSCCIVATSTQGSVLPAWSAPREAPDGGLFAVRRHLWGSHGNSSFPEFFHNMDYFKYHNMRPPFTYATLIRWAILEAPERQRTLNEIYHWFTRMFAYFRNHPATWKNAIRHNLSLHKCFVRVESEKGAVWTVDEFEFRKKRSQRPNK
Briefly: PD-seq (MBP pull-down with sequencing). The note with it: 20 mM Tris-HCl pH 7.5, 100 mM NaCl, 1.5 mM MgCl2, 0.4 uM protein, 0.1 uM dsDNA library, 30 min, room temperature, amylose pull-down; high values mean tight binding; double strand, one strand shown.
On to “GATGATTGTTCTCCCAGCTGATGAATTAACTCAGTCGAGTAAACAAATTTTCCTAATCTTTCTGTTCAAGCGCCATCTAC”, for which the binding signal (RPM ratio (pull-down/input)) turned out to be 0.222.
The figure for “GATGATTGTTCTCCCAGCTGATGAATTCTCCGATTCGAGTAAACAAATTTTCCTAATCTTTCTGTTCAAGCGCCATCTAC” is 0.191; for “GATGATTGTTCTCCCAGCTGATGAATTGCTCTACTCGAGTAAACAAATTTTCCTAATCTTTCTGTTCAAGCGCCATCTAC” it is 0.488.
The figure for “GATGATTGTTCTCCCAGCTGATGAATTGAAATTTTCGAGTAAACAAATTTTCCTAATCTTTCTGTTCAAGCGCCATCTAC” is 0.292.
For “GATGATTGTTCTCCCAGCTGATGAATTTAGACACTCGAGTAAACAAATTTTCCTAATCTTTCTGTTCAAGCGCCATCTAC”, the binding signal (RPM ratio (pull-down/input)) was found to be 1.73.
The figure for “GATGATTGTTCTCCCAGCTGATGAATTGTGTGCATCGAGTAAACAAATTTTCCTAATCTTTCTGTTCAAGCGCCATCTAC” is 2.8.
The result for “GATGATTGTTCTCCCAGCTGATGAATTAACCGCCTCGAGTAAACAAATTTTCCTAATCTTTCTGTTCAAGCGCCATCTAC” reads 0.479; that for “GATGATTGTTCTCCCAGCTGATGAATTTCAGGCCTCGAGTAAACAAATTTTCCTAATCTTTCTGTTCAAGCGCCATCTAC”, 0.445.
The figure for “GATGATTGTTCTCCCAGCTGATGAATTTATTACTTCGAGTAAACAAATTTTCCTAATCTTTCTGTTCAAGCGCCATCTAC” is 1.39.
In the case of “GATGATTGTTCTCCCAGCTGATGAATTGCGCAGTTCGAGTAAACAAATTTTCCTAATCTTTCTGTTCAAGCGCCATCTAC”, the binding signal (RPM ratio (pull-down/input)) was found to be 1.95.
For the sequence “GATGATTGTTCTCCCAGCTGATGAATTTCATAGCTCGAGTAAACAAATTTTCCTAATCTTTCTGTTCAAGCGCCATCTAC”, the binding signal (RPM ratio (pull-down/input)) was 0.415.
As for “GATGATTGTTCTCCCAGCTGATGAATTCCCCCGGTCGAGTAAACAAATTTTCCTAATCTTTCTGTTCAAGCGCCATCTAC”, the binding signal (RPM ratio (pull-down/input)) stood at 0.163.
As for “GATGATTGTTCTCCCAGCTGATGAATTACTTAGGTCGAGTAAACAAATTTTCCTAATCTTTCTGTTCAAGCGCCATCTAC”, the binding signal (RPM ratio (pull-down/input)) was found to be 0.265.
The figure for “GATGATTGTTCTCCCAGCTGATGAATTTTCCGCATCGAGTAAACAAATTTTCCTAATCTTTCTGTTCAAGCGCCATCTAC” is 1.07.
The result for “GATGATTGTTCTCCCAGCTGATGAATTTGTCTGCTCGAGTAAACAAATTTTCCTAATCTTTCTGTTCAAGCGCCATCTAC” reads 3.47; that for “GATGATTGTTCTCCCAGCTGATGAATTACAAAAGTCGAGTAAACAAATTTTCCTAATCTTTCTGTTCAAGCGCCATCTAC”, 0.272; that for “GATGATTGTTCTCCCAGCTGATGAATTATAGGTATCGAGTAAACAAATTTTCCTAATCTTTCTGTTCAAGCGCCATCTAC”, 0.744.
Regarding “GATGATTGTTCTCCCAGCTGATGAATTATATCTGTCGAGTAAACAAATTTTCCTAATCTTTCTGTTCAAGCGCCATCTAC”, the binding signal (RPM ratio (pull-down/input)) stood at 0.544.
Turning to “GATGATTGTTCTCCCAGCTGATGAATTCGTAGCATCGAGTAAACAAATTTTCCTAATCTTTCTGTTCAAGCGCCATCTAC”, the binding signal (RPM ratio (pull-down/input)) was determined as 1.31.
The figure for “GATGATTGTTCTCCCAGCTGATGAATTTACCAAATCGAGTAAACAAATTTTCCTAATCTTTCTGTTCAAGCGCCATCTAC” is 0.518.
The figure for “GATGATTGTTCTCCCAGCTGATGAATTAAAAAGGTCGAGTAAACAAATTTTCCTAATCTTTCTGTTCAAGCGCCATCTAC” is 0.14.
With “GATGATTGTTCTCCCAGCTGATGAATTCACTTATTCGAGTAAACAAATTTTCCTAATCTTTCTGTTCAAGCGCCATCTAC”, the binding signal (RPM ratio (pull-down/input)) was determined as 0.589.
The figure for “GATGATTGTTCTCCCAGCTGATGAATTCTTAGACTCGAGTAAACAAATTTTCCTAATCTTTCTGTTCAAGCGCCATCTAC” is 0.216.
The figure for “GATGATTGTTCTCCCAGCTGATGAATTCACGGGGTCGAGTAAACAAATTTTCCTAATCTTTCTGTTCAAGCGCCATCTAC” is 0.202; for “GATGATTGTTCTCCCAGCTGATGAATTTCTTGAGTCGAGTAAACAAATTTTCCTAATCTTTCTGTTCAAGCGCCATCTAC” it is 0.256; for “GATGATTGTTCTCCCAGCTGATGAATTCGGAATGTCGAGTAAACAAATTTTCCTAATCTTTCTGTTCAAGCGCCATCTAC” it is 0.541.
The figure for “GATGATTGTTCTCCCAGCTGATGAATTTCAAGTCTCGAGTAAACAAATTTTCCTAATCTTTCTGTTCAAGCGCCATCTAC” is 0.308.
Regarding “GATGATTGTTCTCCCAGCTGATGAATTCGGACTTTCGAGTAAACAAATTTTCCTAATCTTTCTGTTCAAGCGCCATCTAC”, the binding signal (RPM ratio (pull-down/input)) is 0.935.
The figure for “GATGATTGTTCTCCCAGCTGATGAATTTGTTGTCTCGAGTAAACAAATTTTCCTAATCTTTCTGTTCAAGCGCCATCTAC” is 7.77; for “GATGATTGTTCTCCCAGCTGATGAATTACGAATTTCGAGTAAACAAATTTTCCTAATCTTTCTGTTCAAGCGCCATCTAC” it is 1.23.
On to “GATGATTGTTCTCCCAGCTGATGAATTTAATTGGTCGAGTAAACAAATTTTCCTAATCTTTCTGTTCAAGCGCCATCTAC”, for which the binding signal (RPM ratio (pull-down/input)) was 3.45.
The figure for “GATGATTGTTCTCCCAGCTGATGAATTCGTCCAGTCGAGTAAACAAATTTTCCTAATCTTTCTGTTCAAGCGCCATCTAC” is 0.261.
With “GATGATTGTTCTCCCAGCTGATGAATTGTGAAGTTCGAGTAAACAAATTTTCCTAATCTTTCTGTTCAAGCGCCATCTAC”, the binding signal (RPM ratio (pull-down/input)) was 0.445.
On to “GATGATTGTTCTCCCAGCTGATGAATTTACCGCATCGAGTAAACAAATTTTCCTAATCTTTCTGTTCAAGCGCCATCTAC”, for which the binding signal (RPM ratio (pull-down/input)) came to 1.17.
The figure for “GATGATTGTTCTCCCAGCTGATGAATTTTTACTCTCGAGTAAACAAATTTTCCTAATCTTTCTGTTCAAGCGCCATCTAC” is 0.238.
The result for “GATGATTGTTCTCCCAGCTGATGAATTCGTAATATCGAGTAAACAAATTTTCCTAATCTTTCTGTTCAAGCGCCATCTAC” reads 0.56; that for “GATGATTGTTCTCCCAGCTGATGAATTTTTTGATTCGAGTAAACAAATTTTCCTAATCTTTCTGTTCAAGCGCCATCTAC”, 0.323.
Take “GATGATTGTTCTCCCAGCTGATGAATTGGAGGTTTCGAGTAAACAAATTTTCCTAATCTTTCTGTTCAAGCGCCATCTAC”: the binding signal (RPM ratio (pull-down/input)) was determined as 0.469.
As to “GATGATTGTTCTCCCAGCTGATGAATTTAATTTATCGAGTAAACAAATTTTCCTAATCTTTCTGTTCAAGCGCCATCTAC”, the binding signal (RPM ratio (pull-down/input)) stood at 2.28.
“GATGATTGTTCTCCCAGCTGATGAATTCGTATCATCGAGTAAACAAATTTTCCTAATCTTTCTGTTCAAGCGCCATCTAC”: the binding signal (RPM ratio (pull-down/input)) was determined as 1.52.
